The source of these data is PMC9911399, “Two distinct binding modes provide the RNA-binding protein RbFox with extraordinary sequence specificity”.

Substitutions are numbered along the chain they refer to; changes in the protein carry UniProt numbers. Some of the results follow.

T1: RBFOX1 RRM RbFoxmut (Fox-RRM*) (Homo sapiens, UniProt Q9NWB1 109-208, R118D;E147R;N151S;E152T)
T1 sequence: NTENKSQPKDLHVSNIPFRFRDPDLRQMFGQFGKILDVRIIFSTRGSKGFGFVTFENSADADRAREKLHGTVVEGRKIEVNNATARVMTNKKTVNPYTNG

B1: CGUCGUG (DNA:RNA)
RNA: GGGAGACCGGAAUUCAGAUUGUCCCGUCGUGUUAAAUCCCGUCGUAGCCACCA
DNA 1: CAATCTGAATTCCGGTCTCCC
DNA 2: TGGTGGCTACGACGGGATT
B2: AACGAGG (DNA:RNA)
RNA: B1 RNA with C25A, G26A, U27C, C28G, G29A, U30G
DNA 1: CAATCTGAATTCCGGTCTCCC
DNA 2: TGGTGGCTACGACGGGATT
B3: CUAAGGG (DNA:RNA)
RNA: B1 RNA with G26U, U27A, C28A, U30G
DNA 1: CAATCTGAATTCCGGTCTCCC
DNA 2: TGGTGGCTACGACGGGATT
B4: GAAUCUA (DNA:RNA)
RNA: B1 RNA with C25G, G26A, U27A, C28U, G29C, G31A
DNA 1: CAATCTGAATTCCGGTCTCCC
DNA 2: TGGTGGCTACGACGGGATT
B5: AAAGUAA (DNA:RNA)
RNA: GGGAGACCGGAAUUCAGAUUGUCCAAAGUAAUUAAAUCCCGUCGUAGCCACCA
DNA 1: CAATCTGAATTCCGGTCTCCC
DNA 2: TGGTGGCTACGACGGGATT
B6: UUUUUCA (DNA:RNA)
RNA: B5 RNA with A25U, A26U, A27U, G28U, A30C
DNA 1: CAATCTGAATTCCGGTCTCCC
DNA 2: TGGTGGCTACGACGGGATT
B7: AAAUUUA (DNA:RNA)
RNA: B5 RNA with G28U, A30U
DNA 1: CAATCTGAATTCCGGTCTCCC
DNA 2: TGGTGGCTACGACGGGATT
B8: GUAAUAG (DNA:RNA)
RNA: B5 RNA with A25G, A26U, G28A, A31G
DNA 1: CAATCTGAATTCCGGTCTCCC
DNA 2: TGGTGGCTACGACGGGATT
B9: CUCGACU (DNA:RNA)
RNA: B5 RNA with A25C, A26U, A27C, U29A, A30C, A31U
DNA 1: CAATCTGAATTCCGGTCTCCC
DNA 2: TGGTGGCTACGACGGGATT
B10: UGGAAGG (DNA:RNA)
RNA: B1 RNA with C25U, U27G, C28A, G29A, U30G
DNA 1: CAATCTGAATTCCGGTCTCCC
DNA 2: TGGTGGCTACGACGGGATT
B11: GUAAGAC (DNA:RNA)
RNA: B5 RNA with A25G, A26U, G28A, U29G, A31C
DNA 1: CAATCTGAATTCCGGTCTCCC
DNA 2: TGGTGGCTACGACGGGATT
B12: GCCAAAA (DNA:RNA)
RNA: B5 RNA with A25G, A26C, A27C, G28A, U29A
DNA 1: CAATCTGAATTCCGGTCTCCC
DNA 2: TGGTGGCTACGACGGGATT
B13: UGGCUAA (DNA:RNA)
RNA: B5 RNA with A25U, A26G, A27G, G28C
DNA 1: CAATCTGAATTCCGGTCTCCC
DNA 2: TGGTGGCTACGACGGGATT
B14: GUGUAUC (DNA:RNA)
RNA: B1 RNA with C25G, G26U, U27G, C28U, G29A, G31C
DNA 1: CAATCTGAATTCCGGTCTCCC
DNA 2: TGGTGGCTACGACGGGATT
B15: UGGCUUC (DNA:RNA)
RNA: B1 RNA with C25U, U27G, G29U, G31C
DNA 1: CAATCTGAATTCCGGTCTCCC
DNA 2: TGGTGGCTACGACGGGATT
B16: UUGGGGU (DNA:RNA)
RNA: B5 RNA with A25U, A26U, A27G, U29G, A30G, A31U
DNA 1: CAATCTGAATTCCGGTCTCCC
DNA 2: TGGTGGCTACGACGGGATT
B17: CGUUUGG (DNA:RNA)
RNA: B1 RNA with C28U, G29U, U30G
DNA 1: CAATCTGAATTCCGGTCTCCC
DNA 2: TGGTGGCTACGACGGGATT
B18: UAACAAA (DNA:RNA)
RNA: B5 RNA with A25U, G28C, U29A
DNA 1: CAATCTGAATTCCGGTCTCCC
DNA 2: TGGTGGCTACGACGGGATT
B19: CUGUAGG (DNA:RNA)
RNA: B1 RNA with G26U, U27G, C28U, G29A, U30G
DNA 1: CAATCTGAATTCCGGTCTCCC
DNA 2: TGGTGGCTACGACGGGATT
B20: AUCUAUA (DNA:RNA)
RNA: B5 RNA with A26U, A27C, G28U, U29A, A30U
DNA 1: CAATCTGAATTCCGGTCTCCC
DNA 2: TGGTGGCTACGACGGGATT

This assay has as its target T1, RBFOX1 RRM RbFoxmut (Fox-RRM*). Kind of assay: EMSA; HiTS-Eq, 1 nM pool, 10 min; buffer printed only for the single-RNA assays: 10 mM Tris pH 7.5, 150 mM NaCl, 3.4 mM EDTA, 0.001% NP-40, 30 C. Conditions: tags: His6 N-terminal (pET28a); label: 5' 32P. An outline of the steps:
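Purified RbFox RRM (wild type or mutant) was equilibrated for 10 min in 50 µL with 1 nM of a 5′-radiolabelled pool of RNA with 7 randomized nucleotides, its flanks annealed to DNA oligonucleotides, across increasing protein concentrations. Free RNA was separated by 8% native PAGE, excised, reverse-transcribed, PCR-barcoded and sequenced on an Illumina HiSeq 2500. Relative association constants came from read-count changes of each variant against the control reaction, normalised to the cognate motif.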
B1: the binding signal was 0.156 KA relative to UGCAUGU.

For the molecule B2, the binding signal is 0.0903 KA relative to UGCAUGU.

Consider B3, for which the binding signal was 0.0601 KA relative to UGCAUGU.

Consider B4, for which the binding signal was 0.219 KA relative to UGCAUGU.

As for B5, the binding signal was 0.131 KA relative to UGCAUGU.

B6: the binding signal was 0.107 KA relative to UGCAUGU.

Take B7: the binding signal was 0.0884 KA relative to UGCAUGU.

In the case of B8, the binding signal is 0.111 KA relative to UGCAUGU.

For the molecule B9, the binding signal was 0.0771 KA relative to UGCAUGU.

Take B10: the binding signal is 0.0661 KA relative to UGCAUGU.

As to B11, the binding signal is 0.0547 KA relative to UGCAUGU.

In the case of B12, the binding signal is 0.0824 KA relative to UGCAUGU.

B13: the binding signal was 0.131 KA relative to UGCAUGU.

B14: the binding signal was 0.424 KA relative to UGCAUGU.

With B15, the binding signal is 0.194 KA relative to UGCAUGU.

For B16, the binding signal was 0.122 KA relative to UGCAUGU.

For B17, the binding signal was 0.137 KA relative to UGCAUGU.

With B18, the binding signal was 0.0629 KA relative to UGCAUGU.

On to B19, for which the binding signal is 0.124 KA relative to UGCAUGU.

B20: the binding signal was 0.138 KA relative to UGCAUGU.
